The other results are listed elsewhere or left out. Single values are uncertain, as repeats are few or missing.
What was measured:
Test in all cases: cell count relative to DMSO control; melanoma cells; higher = more viable cells
Settings in all cases: library dose: low library concentration; 72 h
COLO792 = tested on: COLO792
COLO800 = tested on: COLO800
COLO829 = tested on: COLO829
G361 = tested on: G361
IPC-298 = tested on: IPC-298
IST-MEL1 = tested on: IST-MEL1
LB2518-MEL = tested on: LB2518-MEL
LOXIMVI = tested on: LOXIMVI
MEL-HO = tested on: MEL-HO
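Further: cell number obtained by counting DAPI-stained nuclei in high-throughput microscope images with image analysis software, screen run in 1,536-well plates.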

Compound | cell count (COLO792) | cell count (COLO800) | cell count (COLO829) | cell count (G361) | cell count (IPC-298) | cell count (IST-MEL1) | cell count (LB2518-MEL) | cell count (LOXIMVI) | cell count (MEL-HO)
C=CCNC1=C2C[C@@H](C)C[C@H](OC)[C@H](O)[C@@H](C)/C=C(\C)[C@H](OC(N)=O)[C@@H](OC)/C=C\C=C(/C)C(=O)NC(=CC1=O)C2=O [Tanespimycin] + O=C(O)C(=O)Nc1sc2c(c1C(=O)O)CCNC2 [TCS401] (first compound 0.002 µM, partner dose 1.66667 µM) | 91.6% | 128% | 112% | 95% | 101% | 101% | 74.1% | 105% | 100%
CS(=O)(=O)CCNCc1ccc(-c2ccc3ncnc(Nc4ccc(OCc5cccc(F)c5)c(Cl)c4)c3c2)o1 [lapatinib] + O=c1cc(-c2cccc3c2Sc2ccccc2S3)oc(N2CCOCC2)c1 [KU55933] (first compound 0.8 µM, partner dose 1 µM) | 80.6% | 81.4% | 38.1% | 81.2% | 94.3% | 100% |  | 121% | 82.8%
CN1CCN(c2ccc3nc(-c4c(N)c5c(F)cccc5[nH]c4=O)[nH]c3c2)CC1 [Dovitinib] + Cn1cc(/C=C2\C(=O)Nc3cccnc32)c2ccccc21 [GW441756] (first compound 0.1 µM, partner dose 0.4 µM) | 95% | 83.5% | 102% | 92.2% | 100% | 103% | 95.2% | 123% | 108%
CS(=O)(=O)CCNCc1ccc(-c2ccc3ncnc(Nc4ccc(OCc5cccc(F)c5)c(Cl)c4)c3c2)o1 [lapatinib] + O=S(=O)(c1ccccc1)N(CC(F)(F)F)c1ccc(C(O)(C(F)(F)F)C(F)(F)F)cc1 [T0901317] (first compound 0.8 µM, partner dose 1.4 µM) | 80.4% | 103% | 87.4% | 77.5% | 92.6% | 95.4% | 101% | 69.2% | 94.1%
CN1CCN(c2ccc3nc(-c4c(N)c5c(F)cccc5[nH]c4=O)[nH]c3c2)CC1 [Dovitinib] + CC(C)CCN1c2nc(Nc3cc(F)c(O)c(F)c3)ncc2N(C)C(=O)C1C [BID1870] (first compound 0.1 µM, partner dose 0.2 µM) | 99.7% | 93.4% | 96.2% | 92.2% | 105% | 97.3% | 95.4% | 138% | 79.6%
C[C@@H](Oc1cc(-c2cnn(C3CCNCC3)c2)cnc1N)c1c(Cl)ccc(F)c1Cl [Crizotinib] + O=C(Nc1cccc(Cl)c1)Nc1ncc(CCNc2ncnc3ccsc23)s1 [SNS314] (first compound 0.2 µM, partner dose 0.0008 µM) | 94.6% | 84.4% | 111% | 107% | 108% | 90.9% |  | 131% | 102%
C[C@@H](Oc1cc(-c2cnn(C3CCNCC3)c2)cnc1N)c1c(Cl)ccc(F)c1Cl [Crizotinib] + CCCCCCCCCCCC1=C(O)C(=O)C=C(O)C1=O [Embelin] (first compound 0.2 µM, partner dose 1.2 µM) | 102% | 148% | 86.2% | 99.7% | 102% | 101% | 99.7% | 134% | 96.3%
C[C@@H](Oc1cc(-c2cnn(C3CCNCC3)c2)cnc1N)c1c(Cl)ccc(F)c1Cl [Crizotinib] + COc1ccc(COc2ccc(Cc3cnc(N)nc3N)cc2OC)cc1 [GW2580] (first compound 0.2 µM, partner dose 1 µM) | 102% | 101% | 91.5% | 109% | 98.8% | 97.3% | 95% | 132% | 73.9%
CS(=O)(=O)CCNCc1ccc(-c2ccc3ncnc(Nc4ccc(OCc5cccc(F)c5)c(Cl)c4)c3c2)o1 [lapatinib] + CN(NC(=O)CC(=O)NN(C)C(=S)c1ccccc1)C(=S)c1ccccc1 [STA4783] (first compound 0.8 µM, partner dose 0.006 µM) | 63% | 48.9% | 63.1% | 84% | 98.8% | 73% | 69.7% | 118% | 91%
CNC(=O)c1cc(Oc2ccc(NC(=O)Nc3ccc(Cl)c(C(F)(F)F)c3)cc2)ccn1 [sorafenib] + COC(=O)c1sccc1S(=O)(=O)Nc1ccc(Nc2ccccc2)cc1OC [GSK0660] (first compound 0.4 µM, partner dose 1 µM) | 109% | 115% | 106% | 83.8% | 95% | 95.6% | 109% | 98.5% | 98.8%
CS(=O)(=O)CCNCc1ccc(-c2ccc3ncnc(Nc4ccc(OCc5cccc(F)c5)c(Cl)c4)c3c2)o1 [lapatinib] + COc1cc(Nc2ncc(F)c(Nc3ccc4c(n3)NC(=O)C(C)(C)O4)n2)cc(OC)c1OC [Tamatinib] (first compound 0.8 µM, partner dose 0.4 µM) | 52.5% | 71.8% | 92.6% | 89.8% | 78.8% | 92.5% |  | 65.6% | 104%
CNC(=O)c1cc(Oc2ccc(NC(=O)Nc3ccc(Cl)c(C(F)(F)F)c3)cc2)ccn1 [sorafenib] + NCC(=O)Nc1ccc(-n2nc(C(F)(F)F)cc2-c2ccc3c(ccc4ccccc43)c2)cc1 [OSU03012] (first compound 0.4 µM, partner dose 1 µM) | 97.9% | 78% | 69.2% | 88.7% | 79.6% | 91.9% | 105% | 59.8% | 101%
CN1CCN(c2ccc3nc(-c4c(N)c5c(F)cccc5[nH]c4=O)[nH]c3c2)CC1 [Dovitinib] + C=CCn1c(=O)c2cnc(Nc3ccc(N4CCN(C)CC4)cc3)nc2n1-c1cccc(C(C)(C)O)n1 [MK1775] (first compound 0.1 µM, partner dose 0.02 µM) | 95.2% | 95.6% | 74.4% | 88.2% | 96.5% | 99.4% | 69.1% | 62.1% | 89%
CN1CCN(c2ccc3nc(-c4c(N)c5c(F)cccc5[nH]c4=O)[nH]c3c2)CC1 [Dovitinib] + O=S(=O)(c1ccccc1)N(CC(F)(F)F)c1ccc(C(O)(C(F)(F)F)C(F)(F)F)cc1 [T0901317] (first compound 0.1 µM, partner dose 1.4 µM) | 111% | 122% | 18.8% | 83.1% | 92.6% | 97.9% |  | 125% | 87.6%
C=CCNC1=C2C[C@@H](C)C[C@H](OC)[C@H](O)[C@@H](C)/C=C(\C)[C@H](OC(N)=O)[C@@H](OC)/C=C\C=C(/C)C(=O)NC(=CC1=O)C2=O [Tanespimycin] + CN(NC(=O)CC(=O)NN(C)C(=S)c1ccccc1)C(=S)c1ccccc1 [STA4783] (first compound 0.002 µM, partner dose 0.006 µM) | 78% | 51.6% | 76% | 44.2% | 102% | 76% | 98.9% | 112% | 98.9%
CS(=O)(=O)CCNCc1ccc(-c2ccc3ncnc(Nc4ccc(OCc5cccc(F)c5)c(Cl)c4)c3c2)o1 [lapatinib] + COC(=O)c1sccc1S(=O)(=O)Nc1ccc(Nc2ccccc2)cc1OC [GSK0660] (first compound 0.8 µM, partner dose 1 µM) | 78.4% | 109% | 96% | 89% | 100% | 106% | 101% | 91.6% | 80.5%
CNC(=O)c1cc(Oc2ccc(NC(=O)Nc3ccc(Cl)c(C(F)(F)F)c3)cc2)ccn1 [sorafenib] + CC1(C)NC(=O)N(c2ccc([N+](=O)[O-])c(C(F)(F)F)c2)C1=O [nilutamide] (first compound 0.4 µM, partner dose 1 µM) | 110% | 67.2% | 78.1% | 93.7% | 85.5% | 104% | 99.3% | 110% | 93.8%
